{
  "source": "the RNAGym collection of RNA variant scans (doi:10.1073/pnas.2313332121)",
  "parents": {"B1": {"name": "TPR 5TU (parent)", "chain": "GGAUCUUCUCGAUCUAACAAAAAAGACAAAUCUGCCACAAAGCUUGAGAGCAUCUUCGGAUGCAGAGGCGGCAGCCUUCGGUGGCGCGAUAGCGCCAACGUUCUCAACUAUGACACGCAAAACGCGUGCUCCGUUGAAUGGAGUUUAUCAUG"}},
  "note": "This sample is rich in variants without activity.",
  "data": [
    {"variants_of": "B1", "experiment": "polymerase ribozyme fitness, log enrichment relative to wild type (log ratio); higher = more active; in vitro selection for triplet polymerase activity", "procedure,_shortened": "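Both subunits of a heterodimeric triplet polymerase ribozyme were given their own mutant library, built by PCR and transcribed. Each library was annealed with a biotinylated primer, the partner subunit and triplets, incubated frozen at −7 °C, and its extended constructs gel-excised, captured on streptavidin beads and amplified by RT-PCR, all in one round done in triplicate. Fitness is the logarithm of genotype enrichment relative to wild-type enrichment, with replicates averaged by inverse-variance weighting. That logarithm is base 2, and Illumina-sequenced genotypes needed ≥10 input reads and ≥1 read per output.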", "values": [
      {"variant": "A60C A73G C93U", "polymerase ribozyme fitness (log ratio)": "≤ -4.2"},
      {"variant": "A60U C96U C116A G124A", "polymerase ribozyme fitness (log ratio)": "≤ -4.2"},
      {"variant": "G58A G81A", "polymerase ribozyme fitness (log ratio)": -0.536},
      {"variant": "G58A C87U", "polymerase ribozyme fitness (log ratio)": -0.808},
      {"variant": "C57U C85A G133C G136A", "polymerase ribozyme fitness (log ratio)": -1.86},
      {"variant": "G59U G68U A137G", "polymerase ribozyme fitness (log ratio)": "≤ -4.2"},
      {"variant": "G58A G83C U90G C93U A106G C125U", "polymerase ribozyme fitness (log ratio)": "≤ -4.2"},
      {"variant": "G58U A97G A98G G117U U146G", "polymerase ribozyme fitness (log ratio)": -0.542},
      {"variant": "G58C C63G G68U C123U", "polymerase ribozyme fitness (log ratio)": "≤ -4.2"},
      {"variant": "G59U C99U U104G G128U U134A G136U A138G", "polymerase ribozyme fitness (log ratio)": "≤ -4.2"},
      {"variant": "A60G U134G G143U", "polymerase ribozyme fitness (log ratio)": -3.39},
      {"variant": "C57A C114U", "polymerase ribozyme fitness (log ratio)": -1.45},
      {"variant": "C57A G68A G70U G84U C87A G126U", "polymerase ribozyme fitness (log ratio)": "≤ -4.2"},
      {"variant": "G59A U127C", "polymerase ribozyme fitness (log ratio)": -1.23},
      {"variant": "G59A C85G G100A A115U U127G G141A", "polymerase ribozyme fitness (log ratio)": "≤ -4.2"},
      {"variant": "G58C C79G A107U U134A U139C", "polymerase ribozyme fitness (log ratio)": "≤ -4.2"},
      {"variant": "G59C C93A C95A", "polymerase ribozyme fitness (log ratio)": -4.05},
      {"variant": "G59U G86A A147U", "polymerase ribozyme fitness (log ratio)": -0.0426},
      {"variant": "A60G C75G G81C G94U C103A A107U U111G", "polymerase ribozyme fitness (log ratio)": "≤ -4.2"},
      {"variant": "C57G A89G C93A", "polymerase ribozyme fitness (log ratio)": "≤ -4.2"},
      {"variant": "C57A A89G C95U A119U A120U C125U", "polymerase ribozyme fitness (log ratio)": -1.54},
      {"variant": "G59A U90G C95G", "polymerase ribozyme fitness (log ratio)": "≤ -4.2"},
      {"variant": "G59C U82G C85A U102G", "polymerase ribozyme fitness (log ratio)": -4.09},
      {"variant": "C57A C85U A106U C125G G136U U146G", "polymerase ribozyme fitness (log ratio)": -3.77},
      {"variant": "C57A U82A A138U", "polymerase ribozyme fitness (log ratio)": "≤ -4.2"},
      {"variant": "G59U U148G", "polymerase ribozyme fitness (log ratio)": -3.83},
      {"variant": "G59A C93U A150C", "polymerase ribozyme fitness (log ratio)": "≤ -4.2"},
      {"variant": "C57A G65A G84U A120G", "polymerase ribozyme fitness (log ratio)": -3.08},
      {"variant": "G58A G80A U109C", "polymerase ribozyme fitness (log ratio)": "≤ -4.2"},
      {"variant": "U56C G59U C85A A121U A137U U146G", "polymerase ribozyme fitness (log ratio)": "≤ -4.2"},
      {"variant": "C57U A73G G84C C95A C118G", "polymerase ribozyme fitness (log ratio)": -2.62},
      {"variant": "A60U A73C C93G U139A", "polymerase ribozyme fitness (log ratio)": "≤ -4.2"},
      {"variant": "U56G U61A C76U C79U C85G G100C C108A", "polymerase ribozyme fitness (log ratio)": "≤ -4.2"},
      {"variant": "G58U G81A A122G", "polymerase ribozyme fitness (log ratio)": -0.315},
      {"variant": "G58A U61A A91U", "polymerase ribozyme fitness (log ratio)": "≤ -4.2"},
      {"variant": "C57G G84A C103U A110G", "polymerase ribozyme fitness (log ratio)": -3.52},
      {"variant": "C57A A91G", "polymerase ribozyme fitness (log ratio)": -2.76},
      {"variant": "C57U G86C G94C", "polymerase ribozyme fitness (log ratio)": "≤ -4.2"},
      {"variant": "A60U A89C", "polymerase ribozyme fitness (log ratio)": -0.611},
      {"variant": "C57A U78A U90A U101A G117U", "polymerase ribozyme fitness (log ratio)": "≤ -4.2"},
      {"variant": "C57A C96U G124A A150C", "polymerase ribozyme fitness (log ratio)": -3.99},
      {"variant": "A60C A66C C75G", "polymerase ribozyme fitness (log ratio)": "≤ -4.2"},
      {"variant": "A60G G67C", "polymerase ribozyme fitness (log ratio)": "≤ -4.2"},
      {"variant": "A60G G100A G136U", "polymerase ribozyme fitness (log ratio)": "≤ -4.2"},
      {"variant": "A60G C85G G94A", "polymerase ribozyme fitness (log ratio)": -0.0985},
      {"variant": "G59A G83U G86A G133A", "polymerase ribozyme fitness (log ratio)": "≤ -4.2"},
      {"variant": "A60C A91C C116U", "polymerase ribozyme fitness (log ratio)": "≤ -4.2"},
      {"variant": "G59C C96A C114U G140C", "polymerase ribozyme fitness (log ratio)": "≤ -4.2"},
      {"variant": "A60G A66C A107G G136C", "polymerase ribozyme fitness (log ratio)": "≤ -4.2"},
      {"variant": "G58C A91G C105G A110G", "polymerase ribozyme fitness (log ratio)": "≤ -4.2"},
      {"variant": "C57G G58A A60G A137U", "polymerase ribozyme fitness (log ratio)": -4.15},
      {"variant": "C57G G59U G62A A66G C116U A122C", "polymerase ribozyme fitness (log ratio)": "≤ -4.2"},
      {"variant": "C57G G58C A137C", "polymerase ribozyme fitness (log ratio)": -3.85},
      {"variant": "C57U U61A A64C G94A A107C A138U", "polymerase ribozyme fitness (log ratio)": "≤ -4.2"},
      {"variant": "C57U A73C G94C A107G", "polymerase ribozyme fitness (log ratio)": "≤ -4.2"},
      {"variant": "U56G G59A U61A U148G", "polymerase ribozyme fitness (log ratio)": "≤ -4.2"},
      {"variant": "C57G G84U A89C G112C U139C C149A", "polymerase ribozyme fitness (log ratio)": "≤ -4.2"},
      {"variant": "G59U C75U U78C C87A U101A", "polymerase ribozyme fitness (log ratio)": "≤ -4.2"},
      {"variant": "A60G U61G G81C A122C A142U", "polymerase ribozyme fitness (log ratio)": -3.02},
      {"variant": "U56A U61C", "polymerase ribozyme fitness (log ratio)": -3.45},
      {"variant": "C57A A66C U135G", "polymerase ribozyme fitness (log ratio)": "≤ -4.2"},
      {"variant": "G59U A91U C103A C125A G136A", "polymerase ribozyme fitness (log ratio)": "≤ -4.2"},
      {"variant": "G58A G59U C99G G133A", "polymerase ribozyme fitness (log ratio)": "≤ -4.2"},
      {"variant": "G58A U82A A89U A119G A120U G126U", "polymerase ribozyme fitness (log ratio)": -0.897},
      {"variant": "G59A C118A", "polymerase ribozyme fitness (log ratio)": -0.536},
      {"variant": "G59A C85U A115G G140C", "polymerase ribozyme fitness (log ratio)": "≤ -4.2"},
      {"variant": "A60C C93A U130A A138C", "polymerase ribozyme fitness (log ratio)": "≤ -4.2"},
      {"variant": "G59A C93A U135C U146A", "polymerase ribozyme fitness (log ratio)": -3.8},
      {"variant": "C57G G68A C72G A91U C118A G133C A150G", "polymerase ribozyme fitness (log ratio)": "≤ -4.2"},
      {"variant": "C57U A115U A138C", "polymerase ribozyme fitness (log ratio)": "≤ -4.2"},
      {"variant": "A60G A73U G80U G88U A97C C118U", "polymerase ribozyme fitness (log ratio)": "≤ -4.2"},
      {"variant": "A60U A89C A142U", "polymerase ribozyme fitness (log ratio)": -2.09},
      {"variant": "C57U C69A G83C U90A C103G A137U", "polymerase ribozyme fitness (log ratio)": "≤ -4.2"},
      {"variant": "G58A A73C C87G G94A", "polymerase ribozyme fitness (log ratio)": "≤ -4.2"},
      {"variant": "C57U A91C U146G", "polymerase ribozyme fitness (log ratio)": "≤ -4.2"},
      {"variant": "G59C A97U U139G", "polymerase ribozyme fitness (log ratio)": -0.518},
      {"variant": "G59A A66G C96U G143U", "polymerase ribozyme fitness (log ratio)": "≤ -4.2"},
      {"variant": "G58C C93U G100C C125A", "polymerase ribozyme fitness (log ratio)": "≤ -4.2"},
      {"variant": "U56G C87A C103U C114U C125U", "polymerase ribozyme fitness (log ratio)": "≤ -4.2"},
      {"variant": "G59A G81A C99A C116U A150G", "polymerase ribozyme fitness (log ratio)": "≤ -4.2"},
      {"variant": "C57G G100U U135G U148A", "polymerase ribozyme fitness (log ratio)": "≤ -4.2"},
      {"variant": "A60G G84A C87U A97U C114A G152U", "polymerase ribozyme fitness (log ratio)": "≤ -4.2"},
      {"variant": "C57G G58A G86U", "polymerase ribozyme fitness (log ratio)": -1.7}
    ]}
  ]
}
